Source: the supplement of paper PMC3724861
This is one part of the list.

test system: T1, Caupolican (Caup) homeodomain DNA-binding domain; assay: PBM E-score (8-mer, recovered from the published 9-mer minima) (E-score (dimensionless, -0.5 to 0.5)); Drosophila protein; higher = stronger relative binding preference, active = 0.31 or more
T1 sequence: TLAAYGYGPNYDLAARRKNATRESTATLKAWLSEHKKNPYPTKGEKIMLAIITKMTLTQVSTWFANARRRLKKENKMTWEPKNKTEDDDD
In short: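 An enrichment score, with higher meaning stronger, expresses relative binding preference for each short DNA word. The protein used was Caup's homeodomain DNA-binding domain (residues 214-303), produced by in vitro transcription and translation and tested at 100 nM on custom-designed protein binding microarrays. The 8-mer values were recovered from published 9-mer scores, each equal to the lower of its two constituent 8-mer scores.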

Sequence	PBM E-score
CCTTCGCC	inactive: -0.162
ATGCTCAC	inactive: 0.0542
ATTCCAAG	inactive: 0.0121
GGATGCTA	inactive: -0.0509
ATGTCCCA	inactive: 0.0983
AGACACTA	inactive: 0.0692
GATAGGGA	inactive: -0.109
ACCCAAAT	≥ 0.0832
CCGCTACC	inactive: -0.0854
AATCATAA	inactive: 0.163
ATGTGGTC	inactive: 0.0985
TAAGTGCA	inactive: 0.0623
ACTCCTGA	inactive: -0.0693
AACCACGT	inactive: 0.143
GAGAAAGC	inactive: -0.0804
CCAGTTGA	inactive: -0.0244
GATAGATC	inactive: 0.0307
ACCCCGCT	inactive: -0.214
CACTCGGA	inactive: -0.02
TACCTGCA	inactive: 0.0348
CATACTAC	inactive: 0.147
GGTAACAA	active: 0.316
GACGCGTA	inactive: 0.0959
GCTGATTA	inactive: 0.134

Sequence	PBM E-score
AGAAACGG	inactive: -0.0727
AGTACACG	active: 0.376
CGGGGATC	inactive: -0.203
CTGTTCCC	inactive: -0.0187
AAAATTCT	inactive: 0.111
GAAATCAC	inactive: 0.121
CAGCTCGA	inactive: -0.14
AAGTTGTC	inactive: 0.28
AGTCGCCG	inactive: -0.138
CAGAGTAG	inactive: 0.0239
ATGACATG	active: 0.422
ACAGGCGG	inactive: -0.0126
AGGTACGG	inactive: -0.048
ACGGCTGG	inactive: -0.201
CGCTGATA	inactive: 0.00665
GCTTGGCA	inactive: -0.0609
TAAATATA	inactive: 0.187
ACTGGCCT	inactive: -0.14
AAAGTGAC	inactive: 0.0122
CCTAGTCA	inactive: 0.0804
CTTCGAGA	inactive: -0.102
GTCAAAAA	inactive: 0.0692
GACAGTCC	inactive: -0.0537
ACGACAAG	active: ≥ 0.317

Sequence	PBM E-score
ATGCCACG	inactive: -0.079
CAGTATCA	inactive: 0.127
GTCAGCTA	inactive: 0.0404
GTATGGCA	inactive: -0.0182
ATATTGTG	inactive: 0.139
ATTAACAG	inactive: 0.146
CACACAAA	inactive: 0.0943
GTGCGCGA	inactive: -0.12
CAGTTCAC	inactive: -0.00615
AGAGGCAC	inactive: -0.214
GCAGTGCA	inactive: -0.0579
ACCACGGA	inactive: -0.0601
TTAGAAAA	inactive: 0.0882
ACTTTTCG	inactive: 0.0288
CTGAGCTA	inactive: -0.0782
TAACTGAA	inactive: 0.00442
CACTTGTA	active: 0.318
CCCTAACC	inactive: -0.195
ACTGCAAA	inactive: -0.00032
TATGCTGA	inactive: 0.0607
CCGTGGAA	inactive: -0.12
CCTGGCAG	inactive: -0.129
CGAGCCCG	inactive: -0.122
ACTTATCG	inactive: 0.0884

Sequence	PBM E-score
CCGGTTCC	inactive: -0.207
TGCGAGAA	inactive: -0.134
CCTACTAA	inactive: -0.0684
ATACCAAG	inactive: 0.0808
ACCACTCT	inactive: -0.0256
ACGTCGAC	inactive: 0.0424
CAACATTA	inactive: 0.305
GCATAAGC	inactive: -0.0256
CTGCCCAC	inactive: -0.0591
AGACTCGG	inactive: -0.166
ACTCCTAC	inactive: 0.0383
AATATACC	inactive: 0.13
ACCATACC	inactive: -0.0612
CCCAGAGA	inactive: -0.196
CATGTGTC	inactive: 0.245
CGACCTCA	≥ 0.0301
CCCTACGA	inactive: -0.059
AAAAGTTT	inactive: 0.0301
AAGTGGGC	inactive: -0.0941
ACGAGGAG	inactive: -0.0581
ATCAGCAT	≥ 0.146
ATGAACCA	≥ 0.113
GTTTATGA	inactive: 0.102
CGTCTTAA	inactive: -0.0241

Sequence	PBM E-score
AGGGTACA	inactive: 0.234
ACAGGGTC	inactive: -0.0149
ATCTTGAA	≥ 0.101
TAAGATAA	inactive: 0.032
CTGTTGTC	inactive: 0.256
TTCTTCAA	inactive: 0.0202
AATCAGCC	inactive: -0.0445
CTCTGGCA	inactive: -0.152
CTTTTACC	inactive: -0.00247
CGAAGACG	inactive: -0.178
AACGTTGT	inactive: 0.204
TCCAAACA	inactive: 0.152
GACAAGAC	active: 0.325
CGCTTTTC	inactive: -0.112
CAGTGAGA	inactive: -0.0392
ATACCTGG	inactive: -0.0292
CGATGTGA	≥ 0.2
GTCACGAA	inactive: 0.0637
CGGACAAA	inactive: 0.12
CACATACC	inactive: 0.153
GAACTTAC	inactive: 0.0521
AGCTTCTC	inactive: -0.0895
CGGTCTTA	inactive: -0.00157
AATGTTAC	inactive: 0.277

Sequence	PBM E-score
AGTCGGTC	inactive: -0.0794
CGGAACAA	inactive: 0.235
AAAACGGC	inactive: -0.0103
AGCAAAAT	inactive: 0.0845
CGTGGGCC	inactive: -0.298
CTGGACGA	inactive: -0.0359
ATTATTAC	inactive: 0.238
CATGAATG	inactive: 0.141
CCTAGGGC	inactive: -0.287
ATGTGCAG	inactive: 0.0547
CGAATACA	inactive: 0.218
CCTTCTAA	inactive: -0.0263
ATATCATG	inactive: 0.151
AGTTTTCC	inactive: -0.0223
AGCTTAAC	inactive: 0.00322
GCAGTAAA	inactive: 0.0253
ATGCAGAA	inactive: 0.0732
AAAACACG	inactive: 0.303
ATATGTAG	inactive: 0.297
CCAGCGGG	inactive: -0.276
GCTGGCTA	inactive: -0.178
GTAACCAC	inactive: 0.0618
TGCGGCAA	inactive: -0.0363
